Experimental data taken from article PMC12040169 (PLOS Biology, 2025).
This is one part of the list.

System: T1, C. trachomatis L2/434/Bu expressing GFP (CTL2-GFP)
T1 construct: L2/434/Bu GFP intracellular growth in HeLa cells
Set-up: species or system HeLa; C. trachomatis total inclusion area by high-content imaging, normalised to DMSO
Conditions: total inclusion area; 28.5 h, 10 µM; inhibitor
In short: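 High-content imaging followed the bulk GFP/resorufin measurement: fixed, Hoechst-stained cells were scored for GFP inclusions and host nuclei per well. Total inclusion area and count served as growth proxies, nuclei number as the viability proxy. MIC calculation matched the bulk assay.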

Row | SMILES | % of control remaining
1 | Cn1ncc2c(=O)[nH]c(N3CCN(c4cc(C#N)ccn4)CC3)nc21 [CBK304924] | 34.6917
2 | COc1cccc(CCN2N=C(C)CC2=O)c1OC [CBK067766] | 109.218
3 | Cc1nn(CCNC(=O)C2CC3C=CC2C32CC2)c(C)c1Cl (stereo not shown) [CBK281429] | 95.3786
4 | O=C(Nc1ccc(N2CCNCC2)nc1)c1cccnc1 [CBK029439T] | 84.0103
5 | FC(F)(F)c1cccc(Oc2nnnn2-c2ccccc2)c1 [CBK002798] | 94.0203
6 | Cc1cc(C)cc(/N=C2\NC(=O)C(CC(=O)O)S2)c1 (stereo not shown) [CBK286878] | 89.6799
7 | O=S(=O)(Nc1nnc(C(F)(F)F)s1)c1csc2ccccc12 [CBK062009] | 103.535
8 | COC(=O)CCc1ccc(S(=O)(=O)N2CCCN(Cc3ccc4c(c3)OCO4)CC2)cc1 [CBK063130] | 77.0762
9 | CN1CCN(c2ccc(NC(=O)c3cc4oc(-c5ccccc5)nc4c(=O)n3C)cc2)CC1 [CBK200425] | 95.9653
10 | Cc1cc2c(cc1C)N(C(=O)CSc1nc3ccccc3[nH]1)C(C)(C)CC2C (stereo not shown) [CBK264144] | 98.0782
11 | Cc1cccc(C)c1OCc1nnc(SCC(=O)c2ccc(F)cc2)n1C [CBK269715] | 100.587
12 | CCC(NC1CCc2nc(COC)nn2C1)C1CCC1 (stereo not shown) [CBK304739] | 68.374
13 | CS(=O)(=O)Nc1ccc(C(=O)Nc2ccc(S(=O)(=O)N3CCCC3)cc2)cc1 [CBK268592] | 124.061
14 | Cc1cc(C)nc(SCc2nc3ccc([N+](=O)[O-])cc3[nH]2)n1 [CBK264634] | 115.581
15 | Cc1ccc(NC(=O)Cn2c(=O)cc(O)c3ccccc32)cc1 [CBK291116] | 96.8929
16 | OCCN1CCN(CC(O)COc2ccc(Cl)cc2Cl)CC1 (stereo not shown) [CBK278198C] | 104.865
17 | COc1ccc(C2=NN(c3ccc(C(=O)O)cc3)C(c3ccc(OC)c(OC)c3)C2)cc1 (stereo not shown) [CBK296134] | 106.956
18 | Cc1ccc(NC(=O)COc2ccc(/C=C\c3onc(C)c3[N+](=O)[O-])cc2)cc1 [CBK268928] | 59.0186
19 | Cc1ccc2[nH]c(C)c(CC(=O)N(C)CCN(C)C)c2c1 [CBK282674] | 115.566
20 | O=S(=O)(Cc1ccccc1Cl)NCCN1CCOCC1 [CBK269171] | 98.8848
21 | O=C(CN(C1CCCCC1)S(=O)(=O)c1ccc(Br)cc1)NCc1ccccn1 [CBK264846] | 108.935
22 | O=C(c1cc(F)cc(F)c1)N1CCC(n2cnc3cccnc32)CC1 [CBK283636] | 100.378
23 | O=C(NCC1CCCN1)c1cc(C(=O)c2ccc(Cl)cc2Cl)c[nH]1 (stereo not shown) [CBK115923C] | 87.0285
24 | COc1ccc(CCNC(=O)N(CCC#N)C2CCCCC2)cc1OC [CBK156363] | 68.3901
25 | O=C(Cc1csc(NS(=O)(=O)c2ccc(-c3cccc([N+](=O)[O-])c3)cc2)n1)N1CCOCC1 [CBK200032] | 76.9995
26 | Cc1ccc(S(=O)(=O)c2nc(NCCN3CCOCC3)sc2Cl)cc1 [CBK269615] | 94.5158
27 | N#Cc1c[nH]nc1NS(=O)(=O)c1ccc(F)cc1 [CBK051018] | 107.39

Row | SMILES | % of control remaining
28 | c1nc(Nc2ccc3[nH]ccc3c2)cc(-c2ccc3c(c2)OCO3)n1 [CBK037761] | 97.8485
29 | Cn1nnnc1SCC(=O)Nc1cccc2nsnc12 [CBK268973] | 77.4311
30 | CCS(=O)(=O)Nc1cc(N2CCNCC2)c2occc2c1 [CBK059429C] | 68.6305
31 | Cc1ccc(-c2nnc(C3CCCN(C(=O)C(C)C)C3)o2)s1 (stereo not shown) [CBK283058] | 111.917
32 | CCOc1ccc(/N=c2\scc(-c3ccc(OC)c(Br)c3)n2CCc2ccccc2)cc1 [CBK263654B] | 104.589
33 | CCc1cc(Br)ccc1S(=O)(=O)Nc1cccc2cccnc12 [CBK045012] | 78.9169
34 | CC(=O)c1cnc2cc(-c3ccc(Cl)cc3)nn2c1C [CBK051484] | 110.067
35 | Sc1nnc(-c2ccncc2)n1C1CCCCC1 [CBK288421] | 93.8441
36 | CCS(=O)(=O)c1ccc2oc([C@H]3CCN(C(=O)C4CCCCC4)C3)nc2c1 [CBK289381] | 118.815
37 | O=C(O)C1C2C=CC3(CN(C4CCCCC4)C(=O)C13)O2 (stereo not shown) [CBK287248] | 91.4655
38 | Cc1noc(C)c1C(=O)N1CCCCCC1c1cnn(C)c1 (stereo not shown) [CBK284974] | 103.111
39 | CCCNC(=O)C(C)Sc1nc2ccsc2c(=O)n1CC (stereo not shown) [CBK296745] | 88.8283
40 | CS(=O)(=O)c1ccc(-c2ccc3c(c2)OCCN(C2CCN(C(=O)CC(F)(F)F)CC2)C3)cc1 [CBK169260] | 93.0642
41 | Cc1ccn2cc(-c3ccc4c(c3)CC(C)N4S(C)(=O)=O)cc2c1 (stereo not shown) [CBK285253] | 103.42
42 | CN1CCCN(c2cncc(-c3cccs3)n2)CC1 [CBK065542] | 87.4436
43 | O=C(CN1C(=O)[C@@H]2CCCN2C(=O)c2ccccc21)N1CCCC1 [CBK282434] | 104.187
44 | Cc1ccc(S(=O)(=O)Nc2nnc(C)s2)cc1 [CBK045486] | 26.8159
45 | Cc1ccc2[nH]cc(CCN3CCC(C(=O)NC(=O)Nc4ccccc4F)CC3)c2c1 [CBK034974] | 79.6623
46 | C=CCn1c(-c2sc(NC(=O)CN3C(=C)c4ccccc4C3=O)nc2C)n[nH]c1=S [CBK297909] | 92.6167
47 | NS(=O)(=O)c1ccc(CNC(=O)c2cc(-c3ccncc3)nc3ccc(Cl)cc23)cc1 [CBK267770] | 77.372
48 | COc1cncc(-c2cccc(N3CCN(CCN(C)C)CC3)n2)c1 [CBK037024] | 87.8799
49 | CS(=O)(=O)Nc1nccnc1OC1CCN(CCCn2c(=O)[nH]c3ccccc32)CC1 [CBK084277] | 88.892
50 | CC(CCO)CNS(=O)(=O)c1ccc(N2CCCC2=O)cc1 (stereo not shown) [CBK306358] | 49.8568
51 | Cc1ccc(C2(CN3CCC(NC(=O)c4cc[nH]n4)CC3)CC2)cc1 [CBK285360] | 85.0004
52 | O=C1OCCN1CCN1CCCN(Cc2ccc(F)cc2)CC1 [CBK304023] | 17.5492
53 | c1coc(-c2nc3cnccn3c2NC2CCCCC2)c1 [CBK283498] | 110.809
54 | Cc1nc(NC(=O)CCN2C(=O)COc3ccccc32)sc1-c1n[nH]c(=S)n1C [CBK295362] | 104.875

Row | SMILES | % of control remaining
55 | COc1ccc([C@@]23CC[C@@H](NC(=O)c4ccc(F)c(C(F)(F)F)c4)C[C@@H]2N(C)CC3)cc1OC [CBK074967T] | 80.2747
56 | COc1cc(N2CCCNCC2)ncn1 [CBK085485C] | 85.0784
57 | Cn1c(=O)n(CC(=O)O)c(=O)c2c1nc(Br)n2Cc1ccccc1 [CBK026617] | 101.661
58 | CC1CCc2nn(CCNC(=O)Cc3cccs3)c(=O)cc2C1 (stereo not shown) [CBK284465] | 94.4952
59 | O=C(NCc1ccccc1)N1CCC(n2cnc3cccnc32)CC1 [CBK282281] | 85.7059
60 | CCn1cc(C(=O)O)c(=O)c2cnc(N3CCN(C(=S)Nc4ccc5c(c4)OCCO5)CC3)nc21 [CBK267895] | 106.362
61 | Cc1cc(NS(=O)(=O)c2cccc(Cl)c2C)n[nH]1 [CBK024382] | 83.0483
62 | Cc1cc(C)n(S(=O)(=O)c2cc(C(=O)O)c(Cl)cc2Cl)n1 [CBK113170] | 84.4613
63 | O=C(CSc1nnc(-c2cc(Br)ccc2O)[nH]1)NCCc1ccccc1 [CBK269007] | 77.2107
64 | NS(=O)(=O)c1ccc(NC(=O)c2ccc(COc3ccccc3)o2)cc1 [CBK267915] | 91.6501
65 | COc1c(O)ccc(/C=N\NC(=O)C2COc3cc4ccccc4cc3O2)c1[N+](=O)[O-] (stereo not shown) [CBK262836] | 82.029
66 | O=C(O)c1ccc(-c2c(Cl)cc([N+](=O)[O-])cc2Cl)o1 [CBK026623] | 95.661
67 | O=C(c1ccccc1)N1CCN(C(=O)c2ccco2)CC1 [CBK068314] | 86.7551
68 | COc1ccccc1CN(Cc1cccs1)C(=O)Cn1cnnn1 [CBK305866] | 46.826
69 | COc1ccc([C@]23CN(C)C[C@H]2CCN(C(=O)Nc2cccc(Br)c2)C3)cc1OC [CBK075106T] | 69.9348
70 | CC(NC(=O)CC1CCN(Cc2cccc(C(F)(F)F)c2)CC1)c1nc2ccccc2[nH]1 (stereo not shown) [CBK285952] | 88.9732
71 | C=CCN1CCC(C(=O)NC(=O)NCC2COc3ccccc3O2)CC1 (stereo not shown) [CBK051099] | 90.6325
72 | CC1CCCN(C(=O)C2C3CCC4(CC(=O)c5ccccc5O4)C32)C1 (stereo not shown) [CBK284932] | 68.7004
73 | CC(C)[C@H](CO)Nc1nc(-c2ccco2)cn2ccnc12 [CBK066316] | 74.5854
74 | C=C(C)Cn1c(SCCC(=O)OC)nc2sc3c(c2c1=O)CC(C)(C)OC3 [CBK026634] | 25.3018
75 | COc1ccc(C(=O)Nc2ccccc2N2CCNCC2)cc1 [CBK029447T] | 79.763
76 | c1ccc(Cn2cc(-c3cncn3CCCN3CCCCC3)cn2)cc1 [CBK281491] | 63.3733
77 | Cn1c(SCC(=O)NC(c2ccccc2)c2ccccc2)nnc1-c1ccncc1 [CBK266622] | 120.418
78 | COc1cccc(OC)c1OCCN1CCNCC1 [CBK265089G] | 115.815
79 | O=C(Nc1ccc(-n2cc(Cl)cn2)cc1)c1ccncc1 [CBK270249] | 113.618
